Results reported in paper PMC6639382, “Structural mechanism of synergistic activation of Aurora kinase B/C by phosphorylated INCENP” (Nature Communications, 2019).

Biological target: T1, Aurora kinase C kinase domain (truncation not stated for this experiment), phosphorylated
T1 chain: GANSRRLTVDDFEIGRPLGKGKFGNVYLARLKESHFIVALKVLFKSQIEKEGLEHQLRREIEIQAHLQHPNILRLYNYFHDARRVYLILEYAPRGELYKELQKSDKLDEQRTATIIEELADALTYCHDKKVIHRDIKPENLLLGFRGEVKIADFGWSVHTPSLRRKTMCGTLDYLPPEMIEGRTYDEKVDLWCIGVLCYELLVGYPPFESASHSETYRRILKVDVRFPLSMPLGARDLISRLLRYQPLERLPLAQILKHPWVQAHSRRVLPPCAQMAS
Assay: native mass spectrometry (native ESI-MS)
Details: chain shown with the change; concentration of ca. 10 µM; same gentle ionisation conditions; parent: 0

B1: INCENP IN-box (residues 835–903), phosphorylated on the TSS motif, Q9NQS7-1 S894A (protein)
chain: MEAHPRKPIPTWARGTPLSQAIIHQYYHPPNLLELFGTILPLDLEDIFKKSKPRYHKRTSAAVWNSPPLQ
other: % unbound AURKC (% unbound AURKC): 33
